Measured values taken from PubChem BioAssay AID1768 (National Center for Advancing Translational Sciences (NCATS), 2009).
Hit rate of the full screen: of about 270,000 compounds, about 620 (0.23%) were called active. Inconclusive results, whose numbers are uncertain, are shown with a selection of clear calls. The call rests on the fitted dose curve; in most records, active means well fitted inhibition curve with a large enough effect in the polarisation, with a control signal flat (not every such curve was filed as active); inconclusive means small, poorly fitted or top-dose-only effect, or effect the other way, or a change in a side signal; inactive means no such curve, though single readings can be large or run the other way; the % refers to the polarisation. Where the call is inconclusive, the potency comes from a doubtful curve fit. “Side channel” marks fits to a control or component signal instead of the main read-out.

The molecules below were run against Menin (Homo sapiens) (UniProt O00255) (assay: qHTS Assay for Inhibitors Targeting the Menin-MLL Interaction in MLL Related Leukemias: Competition With Texas Red Labeled MLL-derived Mutant Peptide). Conditions: fluorescence polarization; FP activity change, negative = inhibition: at 61.6 µM (top of the series).
Potency means the concentration at half of the fitted maximal effect; tags describe the fitted curve by direction and shape or compound fluorescence and quenching.
Wherever FP activity change, negative = inhibition is given: % of control where 0% means no effect.

UniProt O00255, sequence (O00255 whole entry, looked up): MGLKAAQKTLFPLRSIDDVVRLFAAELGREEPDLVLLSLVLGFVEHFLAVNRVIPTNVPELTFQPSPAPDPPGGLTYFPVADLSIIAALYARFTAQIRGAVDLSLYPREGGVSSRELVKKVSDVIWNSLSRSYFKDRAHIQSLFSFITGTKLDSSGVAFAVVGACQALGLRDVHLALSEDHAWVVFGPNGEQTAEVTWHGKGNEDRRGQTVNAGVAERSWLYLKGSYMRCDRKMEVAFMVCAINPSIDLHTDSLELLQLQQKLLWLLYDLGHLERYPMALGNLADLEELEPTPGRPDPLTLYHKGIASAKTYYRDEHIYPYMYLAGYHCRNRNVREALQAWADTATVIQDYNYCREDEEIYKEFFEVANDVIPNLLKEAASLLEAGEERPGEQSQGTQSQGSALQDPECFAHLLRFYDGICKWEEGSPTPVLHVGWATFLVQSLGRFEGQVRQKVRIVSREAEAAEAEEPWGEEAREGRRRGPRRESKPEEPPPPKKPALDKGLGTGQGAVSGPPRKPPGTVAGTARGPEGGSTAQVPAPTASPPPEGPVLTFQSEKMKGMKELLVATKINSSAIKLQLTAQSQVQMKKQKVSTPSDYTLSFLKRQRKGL

| Compound | Potency | FP activity change, negative = inhibition |
| --- | --- | --- |
| O=C(CSc1nc2ccccc2c(=O)n1Cc1ccc(C(=O)NC2CC2)cc1)NCc1ccco1 | inconclusive: 22.4 µM [fluorescent, side channel, single point] |  |
| O=C(NC(=S)Nc1ccc(S(=O)(=O)Nc2nccs2)cc1)c1ccccc1 | inconclusive: 39.8 µM [quencher, side channel, single point] |  |
| CCCC(C(=O)NCc1ccco1)N(C(=O)CNS(=O)(=O)c1ccccc1)c1ccccc1OC (stereo not given) | inconclusive: 1.78 µM [inhibitor, partial curve, poor fit] |  |
| COC(=O)C1=NN(C(=O)c2cccc(Br)c2)C(O)(c2ccc(Cl)cc2)C1 (stereo not given) | inconclusive: 28.2 µM [quencher, side channel, single point] |  |
| CCCC1Cc2nc(N3CCCCC3)c(C#N)cc2CO1 (stereo not given) | inconclusive: 3.98 µM [inhibitor, partial curve] |  |
| CCc1cccc(N=c2c([N+](=O)[O-])nn(-c3ccc4c(c3)OCCO4)n2O)c1 | inconclusive: 28.2 µM [quencher, side channel, single point] |  |
| CN(C)CCN(C(=O)/C=C/c1cccs1)c1nc2ccc(F)cc2s1 |  | inactive: 1.39% |
| Cc1onc(-c2ccccc2)c1C(=O)NNC(=S)NC(=O)c1ccc(Br)cc1 | inconclusive: 35.5 µM [quencher, side channel, single point] |  |
| COc1ccccc1C(=O)Nc1ccc2nc3n(c(=O)c2c1)CCCC3 |  | inactive: -9.55% |
| O=C(CSc1nc2c([nH]c3ccccc32)c(=O)n1-c1ccccc1)NCC1CCCO1 (stereo not given) | inconclusive: 1.78 µM [fluorescent, side channel, full curve, poor fit] |  |
| CC1(C)CC(NC(=O)c2cc(COc3cccc(C(F)(F)F)c3)on2)CCO1 (stereo not given) | inconclusive: 1.41 µM [quencher, side channel, full curve] |  |
| O=c1c(-c2ccc(F)cc2)nc2cnc(N3CCOCC3)nc2n1C1CC1 | inconclusive: 2.51 µM [inhibitor, partial curve, poor fit] |  |
| CCC(C)Sc1nc2c(c(=O)[nH]c(=O)n2C)n1CC(O)COc1cccc2ccccc12 (stereo not given) | inconclusive: 11.2 µM [fluorescent, side channel, partial curve] |  |
| NC(CC(=O)OC1CCCCC1)C(=O)OC1CCCCC1 (stereo not given) | inconclusive: 31.6 µM [fluorescent, side channel, single point] |  |
| COc1ccc(/C=N/Nc2nccnc2Cl)cc1 |  | inactive: -0.151% |
| Cc1ccnc(NCc2ccc(Br)cc2)c1 | inconclusive: 39.8 µM [fluorescent, side channel, single point] |  |
| Cc1ccc(Cl)cc1N1CCN(S(=O)(=O)c2c(C)[nH]c(=O)[nH]c2=O)CC1 | inconclusive: 39.8 µM [inhibitor, single point] |  |
| CCN(CC)c1ccc(C(=O)Nc2cccc(F)c2)cc1 | inconclusive: 39.8 µM [quencher, side channel, single point] |  |
| O=C(NC(=S)Nc1ccc(N2CCCCC2)cc1)c1ccc2c(c1)OCCO2 | inconclusive: 10 µM [quencher, side channel, partial curve] |  |
| CC(C)OCCCNC(=O)CN1CCN(Cc2ccc(Cl)cc2)C1=O | inconclusive: 31.6 µM [inhibitor, partial curve] |  |

| Compound | Potency | FP activity change, negative = inhibition |
| --- | --- | --- |
| S=C(NCc1ccc2c(c1)OCO2)Nc1ccc(-c2nc3ccccc3[nH]2)cc1 | inconclusive: 28.2 µM [quencher, side channel, partial curve] |  |
| O=C(c1ccco1)N1CCC2(CCCN(c3ccccc3)C2)CC1 | inconclusive: 14.1 µM [fluorescent, side channel, partial curve] |  |
| O=C(C1CCCCC1)N1CCC(O)(c2ccc(Cl)cc2)CC1 | inconclusive: 10 µM [inhibitor, partial curve] |  |
| CC(C)CCc1c(O)nc(SCC(C)C)[nH]c1=O |  | inactive: 1.33% |
| CCCCOP(=O)(c1ccc(N(C)C)cc1)C(O)c1ccccc1F (stereo not given) | inconclusive: 6.31 µM [inhibitor, partial curve] |  |
| CCOc1cc(/C=C2/SC(=S)NC2=O)ccc1OC(=O)c1ccco1 | inconclusive: 7.08 µM [quencher, side channel, partial curve] |  |
| O=C(Nc1cccn(Cc2c(Cl)cccc2Cl)c1=O)C1CC1 |  | inactive: 5.79% |
| CCOC(=O)C1CCCN(c2c(NCCCN(C)Cc3ccccc3)c(=O)c2=O)C1 (stereo not given) | inconclusive: 39.8 µM [inhibitor, single point] |  |
| CC(/C=N\NC(=O)CN1CCN(S(=O)(=O)c2ccc(C)cc2)CC1)=C\c1ccccc1 |  | inactive: 12.3% |
| CCN(CC)S(=O)(=O)c1ccc(Nc2ccc(-c3ccc4c(c3)OCCO4)nn2)cc1 | inconclusive: 35.5 µM [inhibitor, partial curve, poor fit] |  |
| CC1=C(C(N)=O)C(c2cccs2)n2nc(-c3cccc(C)c3)nc2N1 (stereo not given) |  | inactive: -16.1% |
| Cc1ccc(OCC(=O)N2CCOCC2)cc1C |  | inactive: 1.66% |
| CCc1ccc(N(CC(=O)NCc2ccco2)C(=O)CCC(=O)Nc2ccccn2)cc1 |  | inactive: -19.2% |
| COc1ccc2c(c1)c(=O)oc1cc(OCC(=O)NC3CC3)ccc12 |  | inactive: 21.2% |
| Oc1cccc(/C=N/N(Cc2ccccc2)c2ccccc2)c1 | inconclusive: 35.5 µM [quencher, side channel, partial curve] |  |
| CC(C(=O)NCc1ccco1)n1nc(-c2ccccc2)c2cc(Cl)ccc21 (stereo not given) | inconclusive: 15.8 µM [inhibitor, partial curve] |  |
| Cc1ccc(S(=O)(=O)NCc2ccc(C(=O)NCCCN3CCC(Cc4ccccc4)CC3)cc2)cc1 | inconclusive: 3.98 µM [fluorescent, side channel, partial curve] |  |
| CC1=CC(C)(C)N(C(=O)CN2C(=O)CCC2=O)c2ccc(C)cc21 | inconclusive: 44.7 µM [fluorescent, side channel, partial curve, poor fit] |  |
| COc1ccc(Nc2nc(-c3ccccc3O)nc3ccccc23)cc1 | inconclusive: 2 µM [quencher, side channel, full curve] |  |
| CCN(CC(O)c1cccc(O)c1)C(=O)C12CC3CC(CC(C3)C1)C2 (stereo not given) | inconclusive: 12.6 µM [fluorescent, side channel, partial curve] |  |

| Compound | Potency | FP activity change, negative = inhibition |
| --- | --- | --- |
| CC(C)Cc1nnc(NC(=O)Cc2cccs2)s1 | inconclusive: 31.6 µM [quencher, side channel, single point] |  |
| Cc1c(C)c2ccc(OC(C)C(=O)NCCN3CCOCC3)c(C)c2oc1=O (stereo not given) | inconclusive: 0.794 µM [quencher, side channel, full curve, poor fit] |  |
| CC(C)CC(CO)N1CCN(C(=O)c2ccc(C(C)(C)C)cc2)CCC1=O (stereo not given) | inconclusive: 3.55 µM [fluorescent, side channel, single point] |  |
| CC(C)(C)CC(C)(C)NC(=S)NC1CCN(Cc2ccccc2)CC1 | inconclusive: 39.8 µM [inhibitor, single point] |  |
| CCC(CC)NC(=O)Cc1ccccc1[N+](=O)[O-] | inconclusive: 5.62 µM [inhibitor, full curve] |  |
| CSc1ccc(/C=N/NC(=O)c2cccc(Cl)c2)cc1 | inconclusive: 39.8 µM [quencher, side channel, single point] |  |
| Cc1ccc(-c2nnc(-c3ccccc3)c(N3CCOCC3)n2)cc1 | inconclusive: 25.1 µM [inhibitor, single point] |  |
| CCOC(=O)C(C)Oc1cccc2c(=O)n(CC(=O)N3CCCc4ccccc43)ccc12 (stereo not given) | inconclusive: 1.58 µM [inhibitor, partial curve, poor fit] |  |
| S=C(NCc1ccc2c(c1)OCO2)Nc1ccc2nsnc2c1 | inconclusive: 28.2 µM [quencher, single point] |  |
| CC(C)CSC1=NSC2=NC(=O)/C(=C\c3ccccc3)C(=N)N12 | inconclusive: 3.55 µM [quencher, side channel, partial curve] |  |
| c1ccc2c(c1)ncc1cccn12 |  | inactive: -5.65% |
| O=C(NCc1ccc(N2CCCC2=O)cc1)c1cn(CCc2ccccc2)nn1 | inconclusive: 22.4 µM [inhibitor, single point] |  |
| CC(=O)C1=C(C)NC(SCC(=O)c2ccccc2)=C(C#N)C1c1ccco1 (stereo not given) | inconclusive: 28.2 µM [quencher, side channel, single point] |  |
| O=[N+]([O-])c1cccc(/C([O-])=C(/C(=S)Nc2ccccc2F)[n+]2ccccc2)c1 | inconclusive: 15.8 µM [quencher, side channel, partial curve] |  |
| CCOC(=O)N1CCN(C(=O)Cn2nc(-c3ccc(Cl)cc3)ccc2=O)CC1 | inconclusive: 3.98 µM [inhibitor, full curve] |  |
| CCCCn1c(CCc2ccccc2)nc2cc3[nH]c(=O)c(C(C)C)nc3cc21 | inconclusive: 8.91 µM [fluorescent, side channel, full curve] |  |
| CN(C)S(=O)(=O)c1cccc(NC(=O)/C=C/c2ccccc2[N+](=O)[O-])c1 | inconclusive: 28.2 µM [quencher, single point] |  |
| CNc1nc(N/N=C/c2cc3c(cc2[N+](=O)[O-])OCO3)nc(Nc2ccccc2)n1 | inconclusive: 14.1 µM [quencher, side channel, partial curve] |  |
| Cn1c(Cc2ccccc2)nnc1SCC(=O)NCCc1ccccc1 | inconclusive: 28.2 µM [inhibitor, partial curve] |  |
| CCNc1ncc2nc(-c3ccc(OC)cc3)c(=O)n(CCC#N)c2n1 |  | inactive: -9.23% |
